Experimental data from the RNAGym collection of RNA variant scans (doi:10.1073/pnas.2313332121).
Variants at the floor of the assay are shown more often than the library holds them.

B1: TPR 5TU (parent)
chain: GGAUCUUCUCGAUCUAACAAAAAAGACAAAUCUGCCACAAAGCUUGAGAGCAUCUUCGGAUGCAGAGGCGGCAGCCUUCGGUGGCGCGAUAGCGCCAACGUUCUCAACUAUGACACGCAAAACGCGUGCUCCGUUGAAUGGAGUUUAUCAUG

Variants of: B1
Assay: polymerase ribozyme fitness, log enrichment relative to wild type (log ratio); higher = more active; in vitro selection for triplet polymerase activity
In short: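 Input and output libraries were sequenced on Illumina after a single in vitro selection round, run in triplicate on PCR-built, transcribed mutant libraries of each subunit of a heterodimeric triplet polymerase ribozyme. Selection annealed libraries to a biotinylated primer, the partner subunit and triplets, incubated them frozen at −7 °C, then gel-excised extended constructs for streptavidin-bead capture and RT-PCR. Genotypes with ≥10 input reads and ≥1 read per output were kept. Fitness is the logarithm, taken in base 2, of genotype enrichment divided by wild-type enrichment, using inverse-variance-weighted replicate averages.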

GGAUCUUCUCGAUCUAACAAAAAAGACAAAUCUGCCACAACGCUUGAGAGCAUCUUCGGAUGCAGAGGCGGCAGCGUUCGGUGGCGCGAUAGCGCCAACGUUCUCAACUAUGACGCGUAAAACGCGUGCUCCGUUGAAUGGAGUUUAUCAUG and GGAUCUUCUCGAUCUAACAAAAAAGACAAAUCUGCCACAACGCUUGAGAGCAUCUUCGGAUGCAGAGGCGGCAGCCUUCGGUGGCGUGAUAGGGCCAACGUUCUCAACUAUGACACGCAAAACGCGUGCUCCAUUGAAUGGAGUUUAUCAUG cannot be ordered by “polymerase ribozyme fitness (log ratio)” value: at most -4.2 for the first, at most -4.2 for the second.

Going from GGAUCUUCUCGAUCUAACAAAAAAGACAAAUCUGCCACAACGCUUGAGAGCAUCUUCGGAUGCAGAGGCGGCAGCCUUCGGUGGCUCGAUAGCGCCAACGUUCUCAACUAUGACACGCAAAAUGCGUGCUCCGUUGAAUGGAGUUUAUCAUG to GGAUCUUCUCGAUCUAACAAAAAAGACAAAUCUGCCACAACGCUUGAGAGCAUCUUCGGAUGCAGAGGCGGCAACCUUCGGUGGCGCGAUGGUGCCAACGUUCUCAACUAUGACACGCAAAACGCGUGCUCCGUUGAAUGUAGUUUAUCAUG, the “polymerase ribozyme fitness (log ratio)” value falls from -2.13 to at most -4.2.

GGAUCUUCUCGAUCUAACAAAAAAGACAAAUCUGCCACAACGCUUGAGAGCAUCUUCGGAUGCAGAGGCGGCAGCCUUCGGUGGCGCUAUAGCGCCAACGUUCUCAACUAUGACACGCAAAACGCGUGCUCCGUUGAAUGGAGUUUAUCAUG and GGAUCUUCUCGAUCUAACAAAAAAGACAAAUCUGCCACAACGCUUCAGAGCAUCUUCGGAUGCAGAGGCGGCAGCCUUCGGUGGCGCGAUAGCGCCAACGAUCUCAACUAUGACACACAAAACGCGUGCUCCGUUGAAUGGAGUUUAACAUG cannot be ordered by “polymerase ribozyme fitness (log ratio)” value: at most -4.2 for the first, at most -4.2 for the second.

GGAUCUUCUCGAUCUAACAAAAAAGACAAAUCUGCCACAACGCUUGAGAGCAUCUUCGGAUGCAGAGGCGGCAGCCUUCGGUGGCGGGAUAGCGCCAACGUUCUCAACUAUGACACGCAAAACGCAUGCUCCGUUGAAUGGAGUUUAUCAUG and GGAUCUUCUCGAUCUAACAAAAAAGACAAAUCUGCCACAACGCUUGAGAGCAUCUUCGGAUGCAGAGGCCGCAGCCUUCGGUGGCGCGAUAGCCCCAACGUUCUCAACUAUGACACGCAAAACGUGUGCUCCGUUGAAUGGAAUUUAUCAUG cannot be ordered by “polymerase ribozyme fitness (log ratio)” value: at most -4.2 for the first, at most -4.2 for the second.

GGAUCUUCUCGAUCUAACAAAAAAGACAAAUCUGCCACAACGCUUGAGAGCAUCUUCGAAGGCAGAGGCGGCAGCCUUCGGUGGCGCGAUGGCGCCAACGUUCUCAACUAUGACACGCAAAACGCGUGCUCCGUUGAAUGGAGUUUAUCAUG and GGAUCUUCUCGAUCUAACAAAAAAGACAAAUCUGCCACAACGCUUGAGAGCAUCUUCGGAUGCAGAGGCGGCAGCCUUCGGUGGCGCGAUAGCGCCAACAUUCUCAACUAUGACACGCAAAACGCGUGCUCCGUUGAAUGGAGUUUAUCAUG cannot be ordered by “polymerase ribozyme fitness (log ratio)” value: at most -4.2 for the first, at most -4.2 for the second.

GGAUCUUCUCGAUCUAACAAAAAAGACAAAUCUGCCACAACGCUUGAGAGCAUCUUCGGAUGCAGAAGCGGCAGCCUUCGGUCGCGCGAUAGCGCCAACGUUCUCAACUAUGACACGCAAAACGCGUCCUCCGUUGAAGGGAGUUUAUCAUG and GGAUCUUCUCGAUCUAACAAAAAAGACAAAUCUGCCACAACGCUUGAGAGCAUCUUCGGAUGCAGAGGCGGCAGCCUUCGGUGGCGGGAUAGCGCCAACGUUCUCAACUAUGAUACGCAAAACGCGUGCUCCGUUGAAUGGAGUUUAUCAUG cannot be ordered by “polymerase ribozyme fitness (log ratio)” value: at most -4.2 for the first, at most -4.2 for the second.

GGAUCUUCUCGAUCUAACAAAAAAGACAAAUCUGCCACAACGCUUUAGAGCAUCGUCGGAUGCGGACGCUGCAGCCUUCGGUGGCGCGAUAGCGCCAACGUUCUCAACCAUGACACGCAAAACGCGUGCUCCGUUGAAUGGAGUUUAUGAUG and GGAUCUUCUCGAUCUAACAAAAAAGACAAAUCUGCCACAACGCUUGAGAGCAUCUUCGGAUGCAGAGGCGGCAGCCUUCGGUGGCGAGAUAGCGCCAACGUUCUCAUCUAUGACACGCAAAACGCGUGCUCCGUUGAAUGGAGUUUAUCAUG cannot be ordered by “polymerase ribozyme fitness (log ratio)” value: at most -4.2 for the first, at most -4.2 for the second.

Going from GGAUCUUCUCGAUCUAACAAAAAAGACAAAUCUGCCACAACGCUUGAGAGCAUCUUCGGAUGCAGAGGCGGCAGCCUUCGGUGGCGCGAUAGCGCCAACGUUCUCAACUAUGACACGCAAAACGCGUGCUCCGUUGAAUGGAAUUUAUCAUG to GGAUCUUCUCGAUCUAACAAAAAAGACAAAUCUGCCACAACGCUUGAGAGCAUCUUCGGAUGCAGAGCCGGCAGCCUUCGGUGGCGCGAUAGCGCCAACGUGCUCAACUAUGACACGAAAAACGCGUGCUCCGUUGGAUGGAGAUUAUCAUG, the “polymerase ribozyme fitness (log ratio)” value falls from -1.42 to at most -4.2.

GGAUCUUCUCGAUCUAACAAAAAAGACAAAUCUGCCACAACGCUUGAGAGCAUCUUCGGAUGCAGAGGCGGCAGCCUUCGGUGGCGCUAUUGCGCCAACGUUCUCAACUAUGACACGCAAAACGCGUGCUCCGUUGAAUGGAGUUUAUCAUG and GGAUCUUCUCGAUCUAACAAAAAAGACAAAUCUGCCACAACGCUUGAGAGCAUCUUCGGAUGCAGAAGCGGCAGCCUUCGGUGGCGCGAGAGCGCCAACGUUAUCAACUAUGACACGCAAAACGCGUGCUCCGUUGAAUGGAGUUUAUCAUG cannot be ordered by “polymerase ribozyme fitness (log ratio)” value: at most -4.2 for the first, at most -4.2 for the second.

In the case of GGAUCUUCUCGAUCUAACAAAAAAGACAAAUCUGCCACAACGCUUGAGAGCAUCUUCGGAUGCAGAGUCGGCAGCCUUCGGUGCCGCGAUAGCGCCAACGUUCUCAACUAUGACACGCAAAACGCGUGCUCCGUUGAAUGGAGUUUAUCAUG, the “polymerase ribozyme fitness (log ratio)” value is reported as at most -4.2.
